Among all 310,000 compounds or so, about 2,200 (0.71%) showed an effect of 50% or more. Effects have a minus sign here. The list shows a part of the results.

Chain of human ether-à-go-go-related gene (hERG) potassium channel (Q12809 whole entry, looked up): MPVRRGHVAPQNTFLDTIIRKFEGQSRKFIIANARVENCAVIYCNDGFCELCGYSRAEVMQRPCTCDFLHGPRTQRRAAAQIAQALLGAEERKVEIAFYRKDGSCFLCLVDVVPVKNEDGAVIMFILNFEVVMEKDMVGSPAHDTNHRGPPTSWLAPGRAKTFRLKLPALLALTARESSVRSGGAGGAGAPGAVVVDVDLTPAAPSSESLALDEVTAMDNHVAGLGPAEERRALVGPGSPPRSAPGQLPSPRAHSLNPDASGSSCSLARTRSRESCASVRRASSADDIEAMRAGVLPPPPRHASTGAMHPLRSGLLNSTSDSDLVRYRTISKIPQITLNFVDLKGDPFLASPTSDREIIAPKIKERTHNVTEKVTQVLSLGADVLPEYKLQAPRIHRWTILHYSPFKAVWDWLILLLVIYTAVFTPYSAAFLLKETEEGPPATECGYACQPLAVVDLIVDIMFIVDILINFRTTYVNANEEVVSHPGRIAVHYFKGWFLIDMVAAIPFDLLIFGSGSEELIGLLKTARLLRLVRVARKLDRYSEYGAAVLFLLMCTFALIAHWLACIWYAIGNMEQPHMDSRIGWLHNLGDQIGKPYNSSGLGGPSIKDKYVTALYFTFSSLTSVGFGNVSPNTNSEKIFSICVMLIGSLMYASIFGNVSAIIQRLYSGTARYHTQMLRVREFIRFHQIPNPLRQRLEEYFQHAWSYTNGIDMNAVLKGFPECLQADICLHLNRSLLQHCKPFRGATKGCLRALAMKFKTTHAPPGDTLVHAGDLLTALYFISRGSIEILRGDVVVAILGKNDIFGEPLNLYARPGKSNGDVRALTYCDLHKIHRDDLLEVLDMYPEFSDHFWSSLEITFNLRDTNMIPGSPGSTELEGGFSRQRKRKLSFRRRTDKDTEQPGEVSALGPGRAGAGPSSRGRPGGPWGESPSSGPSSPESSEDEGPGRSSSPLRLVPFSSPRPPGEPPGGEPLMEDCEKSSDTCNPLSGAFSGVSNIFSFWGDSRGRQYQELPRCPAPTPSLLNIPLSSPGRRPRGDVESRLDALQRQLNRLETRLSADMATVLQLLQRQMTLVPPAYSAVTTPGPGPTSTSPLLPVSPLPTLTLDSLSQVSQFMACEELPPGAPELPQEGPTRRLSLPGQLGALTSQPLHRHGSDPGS

This assay has as its target human ether-à-go-go-related gene (hERG) potassium channel (human, UniProt Q12809). The assay can be described thus: primary screen, population patch clamp on CHO cells stably expressing hERG.
`COC(=O)c1ccc(OCC2c3cc(OC)c(OC)cc3CCN2C(=O)C2CC2)cc1` (stereo not shown): the “hERG current change (%, negative = inhibition) at 1uM” value was -6.16%.

Consider `COC(=O)C1N[C@@H]([C@@H](NC(=O)COc2ccccc2)C(=O)NCc2ccsc2)SC1(C)C` (stereo partly shown), for which the “hERG current change (%, negative = inhibition) at 1uM” value is given as 7.39%.

On to `Cc1cc(C(=O)Cn2nc(C(=O)O)c3ccccc3c2=O)c(C)n1CCc1ccc(Cl)cc1`, for which the “hERG current change (%, negative = inhibition) at 1uM” value is 1.56%.

As to `CCCNC(=O)CN1C(=O)COc2ccc(S(=O)(=O)N3CC(C)CC(C)C3)cc21` (stereo not shown), the “hERG current change (%, negative = inhibition) at 1uM” value was -1.64%.

For the compound `Cc1ccc(N2C(=O)CN=C2Nc2nc(C)cc(C)n2)cc1`, the “hERG current change (%, negative = inhibition) at 1uM” value turned out to be 12.2%.

As for `Cc1ccc2cccc(OCC(=O)Nc3ccc4c(c3)OCO4)c2n1`, the “hERG current change (%, negative = inhibition) at 1uM” value is 6.79%.

On to `COc1cccc(NC(=O)c2ccc(N3C(=O)C4CC=CCC4C3=O)cc2)c1` (stereo not shown), for which the “hERG current change (%, negative = inhibition) at 1uM” value is listed as 3.45%.

On to `O=C(CSc1nc2ccccc2[nH]1)NCc1ccc(F)cc1`, for which the “hERG current change (%, negative = inhibition) at 1uM” value is reported as 6.84%.

Consider `CN(CC(=O)Nc1ccc(Cl)c(C(F)(F)F)c1)C(=O)C1CC(=O)N(C2CCCC2)C1` (stereo not shown), for which the “hERG current change (%, negative = inhibition) at 1uM” value turned out to be 6.59%.

For `CCCOc1ccc(C(CC(=O)O)NC(=O)Cc2ccccc2)cc1` (stereo not shown), the “hERG current change (%, negative = inhibition) at 1uM” value came out at 13.7%.

In the case of `C=CCNC(=S)N1CCN(Cc2ccccc2)CC1.O=C(O)C(=O)O`, the “hERG current change (%, negative = inhibition) at 1uM” value was found to be 6.78%.

In the case of `Cc1ccc(OCCSc2nc(NC(C)C)nc(NC(C)C)n2)cc1`, the “hERG current change (%, negative = inhibition) at 1uM” value turned out to be 3.16%.

With `Nc1c2c(nc3sc4c(c13)CCCC4)CCCCC2`, the “hERG current change (%, negative = inhibition) at 1uM” value was -0.153%.

For the compound `COc1ccc(NC(=S)N(CCCN2CCC(C)CC2)Cc2cccs2)cc1`, the “hERG current change (%, negative = inhibition) at 1uM” value is on record as -47.5%.

In the case of `CCOc1ccc2oc(C(=O)OCC(=O)N3CCCC(C)C3)c(C)c2c1` (stereo not shown), the “hERG current change (%, negative = inhibition) at 1uM” value turned out to be 9.09%.

Regarding `O=C(COC(=O)Cn1cnc2ccccc2c1=O)NCc1ccccc1Cl`, the “hERG current change (%, negative = inhibition) at 1uM” value was 9.28%.

Turning to `CCC(C)NC(=O)CSc1ncnc2sccc12` (stereo not shown), the “hERG current change (%, negative = inhibition) at 1uM” value amounted to 19.2%.

On to `CSc1ccc(N2C(=O)NC3(CCCCC3)C2=O)cc1`, for which the “hERG current change (%, negative = inhibition) at 1uM” value was 8.73%.

As to `COc1ccccc1NC(=O)CN(C)S(=O)(=O)c1ccc2c(c1)CCC(=O)N2`, the “hERG current change (%, negative = inhibition) at 1uM” value is given as -20.9%.

In the case of `Cc1cc2c(c(=O)o1)C(C1C=CCCC1)C(C#N)=C(N)O2` (stereo not shown), the “hERG current change (%, negative = inhibition) at 1uM” value was 4.98%.

Turning to `CSc1nc(Cl)c(Cc2ccc(OCC(C)C)cc2)c(N2CCOCC2)n1`, the “hERG current change (%, negative = inhibition) at 1uM” value is 13.9%.

For the compound `O=S1(=O)CC/C(=N\Nc2ccc(F)cc2)c2ccsc21`, the “hERG current change (%, negative = inhibition) at 1uM” value came to 4.93%.

For the compound `O=C(NCC1CCCO1)C(C(=O)c1ccccc1)n1cc(Cl)ccc1=O` (stereo not shown), the “hERG current change (%, negative = inhibition) at 1uM” value was -4.13%.

`COC(=O)C(C)Sc1nnc2n(-c3cccc(C)c3)c(=O)c3c4c(sc3n12)CCCC4` (stereo not shown): the “hERG current change (%, negative = inhibition) at 1uM” value is recorded as 10.6%.

As for `CC(=O)c1ccc(OCc2ncc(C(F)(F)F)cc2Cl)cc1`, the “hERG current change (%, negative = inhibition) at 1uM” value stood at 8.42%.

Take `CC(C)c1ccc(CN2CCC(C(=O)NCc3cccnc3)CC2)cc1.O=C(O)C(=O)O`: the “hERG current change (%, negative = inhibition) at 1uM” value is listed as -28.9%.

As to `O=C(CCCN1C(=O)/C(=C/c2ccccc2)SC1=S)Nc1ccc(C(=O)O)c(O)c1`, the “hERG current change (%, negative = inhibition) at 1uM” value is 14%.

As for `COc1ccc(S(=O)(=O)N2CCCCC2)cc1NC(=O)c1ccco1`, the “hERG current change (%, negative = inhibition) at 1uM” value is recorded as 8.76%.

As to `C/C(=N\NC(=O)COc1ccc(C)cc1[N+](=O)[O-])c1ccc2c(c1)OCCO2`, the “hERG current change (%, negative = inhibition) at 1uM” value was found to be 8.71%.

As for `CCOC(=O)c1nc2cc3n(c(CC(C)C)c-2c1C)CC(C)=C3C.Cl`, the “hERG current change (%, negative = inhibition) at 1uM” value was -54.2%.

For `COc1ccc(N2C(=O)/C(=C/c3cccs3)C(=O)NC2=S)cc1`, the “hERG current change (%, negative = inhibition) at 1uM” value was determined as 12.7%.

`S=C(NCc1cccnc1)Nc1ccc(Oc2ccccc2)cc1`: the “hERG current change (%, negative = inhibition) at 1uM” value is listed as 8.29%.

Regarding `Brc1cccc(C2Nc3cccc4cccc(c34)N2)c1`, the “hERG current change (%, negative = inhibition) at 1uM” value is 14.5%.

`CCOCCCNC(=O)Cc1ccc(Br)cc1`: the “hERG current change (%, negative = inhibition) at 1uM” value was determined as 11.1%.

`COC(=O)c1c(C)oc2ccc(N(C(C)=O)S(=O)(=O)c3ccccc3)cc12`: the “hERG current change (%, negative = inhibition) at 1uM” value was found to be 2.27%.

With `S=C(NCCCN1CCOCC1)Nc1ccc(Cl)cc1Cl`, the “hERG current change (%, negative = inhibition) at 1uM” value is given as -5.97%.

In the case of `O=C(O)c1cccc(NS(=O)(=O)/C=C/c2ccccc2)c1`, the “hERG current change (%, negative = inhibition) at 1uM” value was 5.07%.

On to `Cc1ccc(-n2nnnc2SCC(=O)Nc2sc(C)c(C)c2C#N)cc1C`, for which the “hERG current change (%, negative = inhibition) at 1uM” value came out at 3.85%.

Turning to `CN(C)/C=C(/C(=O)c1ccccc1)S(=O)(=O)c1ccc(Cl)cc1`, the “hERG current change (%, negative = inhibition) at 1uM” value is on record as 10%.

Regarding `COC(=O)C1CC(Cl)CN1c1ncc(C(F)(F)F)cc1Cl` (stereo not shown), the “hERG current change (%, negative = inhibition) at 1uM” value is given as 15.5%.

On to `COc1ccc2[nH]c(=O)c(CN(CCc3cccc(C)c3)C(C)=O)cc2c1`, for which the “hERG current change (%, negative = inhibition) at 1uM” value is 0.592%.

Consider `COc1ccc(NC(=O)CCS(=O)(=O)c2ccc3c(c2)oc(=O)n3C)cc1OC`, for which the “hERG current change (%, negative = inhibition) at 1uM” value came out at 14.2%.

Consider `O=C(Nc1ccccn1)c1cc2ccccc2cc1O`, for which the “hERG current change (%, negative = inhibition) at 1uM” value is 17%.

As for `COc1ccccc1/C=C1\SC(=S)N(CCC(=O)Nc2cc(C)on2)C1=O`, the “hERG current change (%, negative = inhibition) at 1uM” value amounted to 13.3%.

With `Cc1nc(-c2ccccc2)sc1C(=O)CSc1ccc(Br)cc1`, the “hERG current change (%, negative = inhibition) at 1uM” value is given as 10.2%.

In the case of `CC(=O)Nc1ccc(NC(=O)CC2SC(=O)N(CC(=O)c3ccccc3)C2=O)cc1` (stereo not shown), the “hERG current change (%, negative = inhibition) at 1uM” value came out at 8.07%.

Turning to `COCCn1c(N)c(N(Cc2ccccc2)C(=O)c2ccc(-c3ccc(Cl)cc3)o2)c(=O)[nH]c1=O`, the “hERG current change (%, negative = inhibition) at 1uM” value worked out at 0.709%.

Regarding `O=C(O)c1cnn(-c2ccccc2)c1-c1ccncc1`, the “hERG current change (%, negative = inhibition) at 1uM” value is given as 10.8%.

For `COc1c(Cl)cc(Cl)cc1C(=O)Nc1ccc(NC(=O)c2cccs2)cc1`, the “hERG current change (%, negative = inhibition) at 1uM” value was 15.5%.

On to `O=C(CSCc1ccccc1)NNc1c(F)c(F)cc(F)c1F`, for which the “hERG current change (%, negative = inhibition) at 1uM” value is recorded as 11.9%.

Consider `COc1ccc(-c2nnc(SCc3cc(C)ccc3C)n2N)cc1`, for which the “hERG current change (%, negative = inhibition) at 1uM” value was found to be 0.154%.

For `O=C(Nc1ccc(C(=O)N2CCC([NH+]3CCOCC3)CC2)cc1)c1ccc(Br)o1.O=C(O)C(F)(F)F`, the “hERG current change (%, negative = inhibition) at 1uM” value amounted to 10.4%.

For the compound `CC1CCCN(C(=O)COC(=O)CSc2ccc(C(N)=O)cc2[N+](=O)[O-])C1` (stereo not shown), the “hERG current change (%, negative = inhibition) at 1uM” value is 7.65%.

As for `N#CCCN(C(=O)CN1C(=O)NC2(CCCC2)C1=O)c1ccccc1F`, the “hERG current change (%, negative = inhibition) at 1uM” value is reported as 8.67%.

On to `COc1ccc(OC)c(C2C(C(=O)c3sc(C)nc3C)=C(O)C(=O)N2CCN2CCOCC2)c1` (stereo not shown), for which the “hERG current change (%, negative = inhibition) at 1uM” value is given as 20.7%.
